Results taken from PubChem BioAssay AID757 (NMMLSC, 2007).
In all, about 190,000 compounds went through this assay and about 520 (0.27%) were called active. This list was built around the results that the source calls inconclusive (neither active nor inactive); the mix of calls is not that of the screen.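 How the source made its calls: active means GTP binding activity at least 20 points away from the 100% control level, either lower or higher; inconclusive means compound flagged as likely green fluorescent, judged across all proteins; inactive means the rest.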

Each compound was assayed against Ras-related C3 botulinum toxin substrate 1 (Homo sapiens) (UniProt P63000) (assay: wildtype Rac1 GTP binding modulators, primary screen, biochemical, GST-Rac1 beads, flow cytometry, multiplex (AID 757)). Conditions: fluorescent GTP binding, at 10 µM, actives lie on both sides, 0 = cold GTP competed, 100 = untreated.

Row | Structure (SMILES) | GTP binding activity (% of control)
1 | CCOc1[nH]n(-c2ccc(Cl)cc2)c(=O)c1C=Nc1ccc(O)cc1 | inconclusive: 104%
2 | Cc1ccccc1C(=O)Nc1nc(=S)ss1 | inconclusive: 90%
3 | O=C(Cn1cnc2cc([N+](=O)[O-])ccc2c1=O)NCc1ccc(Cl)cc1 | active: 74%
4 | CCCc1cc2c(cc1NC(=O)c1ccco1)OCO2 | inactive: 104%
5 | COc1ccc(CCNC(=O)c2ccc3c(SCC(=O)O)c4c(nc3c2)CCCC4)cc1OC | inactive: 97%
6 | CC(=O)c1ccc(N2CCN(C(=O)c3ccc4c(=O)n(-c5ccccc5)c(=O)[nH]c4c3)CC2)cc1 | active: 121% [activator]
7 | CCOc1ccc(-n2c(-c3ccco3)n[nH]c2=S)cc1 | inconclusive: 80%
8 | N#C/C(=C(/O)COc1ccc(Br)cc1)c1nnc2n1CCCCC2 | active: 78%
9 | Cc1cc(C(=O)CN2C(=O)NC3(CCC(C)CC3)C2=O)c(C)n1C (stereo not drawn) | inconclusive: 98%
10 | NNC(=O)c1nc[nH]c1C(=O)Nc1ccccc1[N+](=O)[O-] | inconclusive: 85%
11 | Cc1cccc(N2CCN(C(=O)/C=C/c3cccs3)CC2C)c1 (stereo not drawn) | inconclusive: 88%
12 | COc1ccc(C(=O)OCCNC(=O)c2ccncc2)cc1OC | inactive: 102%
13 | Cn1c(N=Nc2ccc(N3CCOCC3)cc2)[n+](C)c2ccccc21 | inconclusive: 99%
14 | CCOC(=O)Cc1nnc(NC(=O)C(CC)Sc2nnc3c4ccccc4n(C)c3n2)s1 (stereo not drawn) | inconclusive: 97%
15 | Cc1ccc(/C=C(\CCC(=O)O)c2nc3ccccc3s2)cc1[N+](=O)[O-] | inactive: 83%
16 | O=C(NCc1ccccc1)C1=C[C@H](C2CC2)C[C@H](OCCCCO)O1 | inactive: 100%
17 | O=C(CSc1nc(C2CC2)nc2ccccc12)Nc1ccccc1N1CCOCC1 | inactive: 98%
18 | CC12CCC(C(=O)NCc3ccc4c(c3)OCO4)(OC1=O)C2(C)C (stereo not drawn) | inactive: 100%
19 | Cn1c(=O)cc(SCC(=O)N2CCN(C(=O)c3ccco3)CC2)c2ccccc21 | inconclusive: 109%
20 | O=c1c2ccccc2nnn1CSc1ccc2c(c1)OCCO2 | inconclusive: 107%
21 | O=C(CCN1CCCC1Cc1ccccc1)c1ccc2c(c1)OCCO2 (stereo not drawn) | inactive: 84%
22 | CCN(CC)S(=O)(=O)c1cc(NC(=O)CSc2nccn2C)ccc1C | inactive: 98%
23 | CCOC(=O)NC(=O)CSc1ccccn1 | inconclusive: 95%
24 | COc1cccc(Oc2nnnn2-c2ccccc2)c1 | inactive: 104%

Row | Structure (SMILES) | GTP binding activity (% of control)
25 | CCCN1C(=O)C(Cc2nc3ccccc3c(=O)n2C)c2ccccc21 (stereo not drawn) | inconclusive: 102%
26 | O=c1c2sccc2nc(SCc2cc(=O)n3cc(Cl)ccc3n2)n1Cc1ccccn1 | inconclusive: 98%
27 | N#C/C(=C\c1ccncc1)c1nc2ccccc2[nH]1 | active: 31%
28 | O=c1cc(CN2CC(O)Cc3ccc4ccccc4c32)nc2sccn12 (stereo not drawn) | inactive: 100%
29 | Cc1nc2c(C)cccn2c1C(=O)c1ccccc1 | inactive: 94%
30 | O=C(O)CCc1ccc(-c2cccs2)n1Cc1ccco1 | inconclusive: 115%
31 | CC(C)C1=NOC(C(=O)N2CCC(N3CCC(C(=O)N4CCOCC4)CC3)CC2)C1 (stereo not drawn) | inconclusive: 98%
32 | Cc1ccc(/C=N/NC(=O)c2ccc(C(=O)N/N=C/c3ccc(C)s3)o2)s1 | inconclusive: 88%
33 | COc1cccc(/C=N/N=C(\N)c2nonc2N)c1O | inactive: 84%
34 | Cc1cc(/C=C(/C#N)c2nc3ccccc3[nH]2)c(C)n1-c1cc(C(=O)O)cc(C(=O)O)c1 | inconclusive: 79%
35 | CCN(CC)S(=O)(=O)c1cccc(-c2nnc(SCCOc3ccccc3C)o2)c1 | inconclusive: 94%
36 | O=C(NCCc1ccccc1)C(=O)N/N=C/c1ccccc1C(F)(F)F | inconclusive: 104%
37 | O=S(=O)(Nc1ncn[nH]1)c1ccc2ccccc2c1 | active: 126% [activator]
38 | CCOC(=O)c1cnn(-c2cc(Oc3ccccc3C)ncn2)c1N | inactive: 98%
39 | O=C(NC1CC1)C1CCN(C2CCN(C(=O)/C=C/c3cccs3)CC2)CC1 | inconclusive: 98%
40 | O=C(CSc1ccc2nnc(-c3ccccc3)n2n1)N1CCCc2ccccc21 | inconclusive: 85%
41 | O=C(NCc1ccccc1)c1cc(=O)c2ccccc2o1 | inconclusive: 91%
42 | COCCn1c(N)c(C(=O)NCc2cccs2)c2nc3ccccc3nc21 | inconclusive: 83%
43 | COc1ccc(OC)c(CN2CCC(CNC(=O)Nc3cccc(Cl)c3)CC2)c1 | inconclusive: 93%
44 | C=CCN1C(=O)/C(=C2/Sc3ccccc3N2CCCS(=O)(=O)O)SC1=S | inconclusive: 84%
45 | O=C(Oc1cccc(O)c1)C1CCCCC1 | inconclusive: 82%
46 | COc1ccc(C2SCCN2C(=S)Nc2ccc(Cl)cc2)cc1 (stereo not drawn) | inconclusive: 104%
47 | CCOc1ccccc1N1CCN(C(=O)Nc2ccc(Cl)c(Cl)c2)CC1 | inconclusive: 84%
48 | CN(CC(=O)N1CCN(c2ccccc2)CC1)S(=O)(=O)c1cccs1 | inactive: 101%

Row | Structure (SMILES) | GTP binding activity (% of control)
49 | Cc1cc(-c2ccccc2)c(C#N)c(N)n1 | inconclusive: 89%
50 | CCOC(=O)c1cc(-c2ccc(OC(F)F)cc2)nc2c1c(=O)[nH]c(=O)n2C | inactive: 97%
51 | CCCc1[nH]nc2c1C(c1ccc(OC)c(Cn3nnc4ccccc43)c1)C(C#N)=C(N)O2 (stereo not drawn) | inconclusive: 103%
52 | COc1ccc(/C(N)=N/O)c(OC)c1 | inactive: 99%
53 | COCCN1C(=O)/C(=C/c2ccc(N3CCCC3)cc2C)SC1=S | inconclusive: 140%
54 | O=C(Cc1ccc(Nc2nc(=S)[nH]c3ccccc23)cc1)NC1CCCCC1 | active: 57%
55 | O=c1c(-c2ccco2)[n+]([O-])c2ccccc2n1OCc1ccccc1[N+](=O)[O-] | inconclusive: 95%
56 | CC1(C)CC(=O)C2=C(C1)OC(c1ccncc1)C(C#N)=C2N (stereo not drawn) | inconclusive: 104%
57 | O=C1CC(N(CCc2ccccc2)C(=S)Nc2cc(Cl)ccc2Cl)C(=O)N1c1c(Cl)cccc1Cl (stereo not drawn) | inactive: 97%
58 | Cc1cc(N2C(=O)CC(Cc3ccc(Cl)cc3)C2=O)no1 (stereo not drawn) | inconclusive: 105%
59 | S=C(NCC1CCCO1)Nc1ccccc1 (stereo not drawn) | inconclusive: 92%
60 | S=C(NCc1ccco1)N1CCN(C/C=C/c2ccccc2)CC1 | inactive: 96%
61 | CCN(CC)CCCn1c(=S)[nH]c2cc(C(=O)OC)ccc2c1=O | inconclusive: 105%
62 | Cc1[nH][nH]c(=O)c1C(c1ccc(-c2ccc(Cl)c(C(=O)O)c2)o1)c1c(C)[nH][nH]c1=O | inconclusive: 92%
63 | COc1ccc(C(=O)OCC(=O)Nc2nc3c(F)c(F)c(F)cc3s2)cc1OC | inactive: 98%
64 | COCc1nnc(NC(=O)c2cc(OC)c(OC)cc2[N+](=O)[O-])s1 | inactive: 99%
65 | COCCn1c(SCCN2CCOCC2)nc2c1c(=O)[nH]c(=O)n2C | inconclusive: 108%
66 | COc1ccc(Oc2ncnc3c2ncn3Cc2ccccc2)cc1 | inconclusive: 89%
67 | CC(CN1CCOCC1)OC(=O)c1ccc(Br)cc1 (stereo not drawn) | inconclusive: 103%
68 | CCn1c2ccc(C)cc2c2nc3cc(C(=O)O)ccc3nc21 | inconclusive: 85%
69 | COc1cc(/C=N/Nc2ncnc3sc4c(c23)CCC4)ccc1O | inconclusive: 72%
70 | Cc1cc(=S)cc(C)n1CCO | inactive: 97%
71 | CCCCc1nc2sc3c(=O)n(N)cnc3c2c2c1CCC2 | inactive: 93%
72 | COc1ccccc1C/C(N)=N/OC(=O)COc1ccc2ccccc2c1 | inconclusive: 94%

Row | Structure (SMILES) | GTP binding activity (% of control)
73 | COC(=O)c1cc(C(=O)OC)cc(-n2c(C)cc(C(=O)COC(=O)CNS(=O)(=O)c3ccc(C)cc3)c2C)c1 | inactive: 99%
74 | CSc1nnc(-c2cccc(C)c2)n1N | inconclusive: 103%
75 | CCOC(=O)c1c(CSc2ccccc2)n(C)c2cc(Br)c(OCC(O)CNC(CO)(CO)CO)cc12 (stereo not drawn) | active: 120% [activator]
76 | Cc1csc(NC(=O)CSc2ccc3nnc(-c4ccncc4)n3n2)n1 | inconclusive: 84%
77 | Cn1c(N)c(C(=O)COC(=O)CC2CC3CCC2C3)c(=O)n(C)c1=O (stereo not drawn) | inconclusive: 99%
78 | CCOC(=O)/C(=C/C=C1\Sc2cc(OCC)c(OCC)cc2N1CC)C(C)=O | inconclusive: 76%
79 | Cc1nnc2n(c1=O)N=C(c1ccc(Cl)cc1)CS2 | inactive: 99%
80 | O=C(c1cc(COc2c(F)cccc2F)on1)N1CCc2ccccc2C1 | inconclusive: 98%
81 | CCOCC(=O)Nc1ccccc1C(=O)O | inactive: 103%
82 | COc1cc(/C=C2/SC(N)=NC2=O)ccc1Oc1ccc([N+](=O)[O-])cc1[N+](=O)[O-] | inactive: 94%
83 | O=C(C#Cc1cccc([N+](=O)[O-])c1)c1ccccc1 | inactive: 89%
84 | CN1C(=O)/C(=C2\SC(=S)N(CC3CCCO3)C2=O)c2ccccc21 (stereo not drawn) | inactive: 104%
85 | Cc1ccc(S(=O)(=O)N2CCC(NC(=O)c3ccccc3)CC2)cc1 | inactive: 98%
86 | Nc1nc(SCC(=O)NCCOCCO)nc2sc3c(c12)CCCC3 | inactive: 95%
87 | CC(=O)c1sc(Nc2nc(C)cc(C)n2)nc1C | inconclusive: 107%
88 | COc1cc(N2CCCC2)c(OC)cc1/C=C(/C#N)c1cccc(Br)c1 | inconclusive: 159%
89 | N#Cc1sc2nc3c(c(-c4cccnc4)c2c1N)CCC3 | inconclusive: 98%
90 | c1nc(NCCN2CCOCC2)c2sc3nc(N4CCOCC4)c4c(c3c2n1)CCC4 | inconclusive: 83%
91 | Cc1ccc(NC(=S)Nc2ccc3nc(-c4ccccn4)c(-c4ccccn4)nc3c2)cc1C | active: 125% [activator]
92 | COc1ccc(CN=C2NN=C(c3ccccc3)CS2)cc1 | inconclusive: 94%
93 | Cc1ccc(C)c(N2CCN(C(=O)Cn3c(=O)[nH]c4ccsc4c3=O)CC2)c1 | inconclusive: 102%
